The results in this text go back to the RNAGym collection of RNA variant scans (doi:10.7554/elife.90254).

To fix the notation:
B1: OR4K15 (parent)
chain: GUUAACGGUCAUAGGCCAUGGAAACUAGGAGCACCAUUUCGCUGCCAGUGAAGAAAUGAACAAAGAAAAUCUGGGCCAGGCAGGCAUCAAAAGAAAUAGUCUUGCGCUCAACCAGAAAGUCUGUAAUCAUUUUAAGGGUA

Read counts are not given, so values of variants with three or more changes are uncertain.

In the data set the parent is B1. As to the kind of experiment: self-cleavage, relative activity (ratio to wild type); higher = more cleavage; in vitro, sequencing; the parent is a self-cleaving ribozyme.
In the case of U49C A54G A82U, the self-cleavage turned out to be 0.03.

Consider G44A A59G A78U, for which the self-cleavage came out at 0.34.

For A47U A95G A117G, the self-cleavage is 1.76.

With G44A A64U A67U A95U C107U, the self-cleavage stood at 0.02.

A47U A54G C128U: the self-cleavage was found to be 0.48.

Regarding A47U A96G U122C, the self-cleavage was found to be 1.1.

For U49A A55G U127C, the self-cleavage came out at 0.13.

With A47G A89G A95G U124C, the self-cleavage turned out to be 1.4.

Regarding A47G A86U G93U A96G, the self-cleavage was found to be 2.8.

For A47U U72A A110G A111G, the self-cleavage is 0.01.

As for U43C A89G A98G, the self-cleavage is 0.42.

For the variant A47G A54G A98U, the self-cleavage was 1.53.

A47G A52G U131C: the self-cleavage worked out at 0.34.

On to A47U A62G A92G U108A, for which the self-cleavage was 0.01.

For U49C A56G U108C U139C, the self-cleavage was 0.01.

On to U43C A66G A92G A110G, for which the self-cleavage stood at 0.06.

On to A47G A51G A94G A110G, for which the self-cleavage was determined as 0.17.

With U43C A78U A96G A114G, the self-cleavage turned out to be 0.05.

For U49C A52G A55G A116G U120C, the self-cleavage was found to be 0.24.

With A47G A116G A117G, the self-cleavage is 0.19.

For the variant A47G U72C A116G, the self-cleavage is 0.12.

For A47U A89U U124C A126G, the self-cleavage came out at 0.09.

With U43C A111G U132A, the self-cleavage was found to be 0.01.

U49C A60G U131C: the self-cleavage is 0.52.

On to U49C A78G A111G, for which the self-cleavage came to 0.01.

As to A47G U87A A126U, the self-cleavage came to 0.71.

Turning to U43C C76U A90G A91G, the self-cleavage is 0.18.

As to U49C A78U A98U A111G, the self-cleavage was 0.01.

A47G A82G A117U: the self-cleavage amounted to 0.53.

For the variant A47G G50U U97C, the self-cleavage is 1.

With A47U G104U A118G, the self-cleavage worked out at 0.02.

With U49C A55G A67U, the self-cleavage amounted to 2.

A47U A54G A55G A135U: the self-cleavage turned out to be 1.28.

On to A47G A89G U100C, for which the self-cleavage worked out at 2.26.

On to U43C A67G A111G A114C, for which the self-cleavage is 0.

On to A47U U49A A111G, for which the self-cleavage came to 0.01.

Take U49A A56G A78G: the self-cleavage worked out at 0.32.

As for C46U A63G A67G A94G A114G, the self-cleavage was found to be 1.23.

In the case of A47U A64G A67G U132A A134G G138A, the self-cleavage is 0.36.

Consider A47G A56G C105A, for which the self-cleavage was 0.03.

As for U49A A62U A92G U97A U102A, the self-cleavage stood at 0.8.

As for U49A A60G U103C, the self-cleavage stood at 0.76.

As to U43C G58U U97C U120C, the self-cleavage amounted to 0.36.

On to U49C A60G A69G U120C, for which the self-cleavage worked out at 0.49.

U43C A91G U130C U132C: the self-cleavage stood at 1.08.

With U49C A69G A91G A94G A110C, the self-cleavage was 0.13.

Consider G44C A54G A60G A118G, for which the self-cleavage worked out at 0.44.

Consider A47G U57A A67G U70C A89G C105U, for which the self-cleavage is 0.03.

U49C A54G U57C U70A A94G: the self-cleavage is 0.59.

As to U43G A110G U127C, the self-cleavage was determined as 0.26.

As for U43C A68G C85U, the self-cleavage came to 1.51.

Regarding U43C A59U A92G A118G U127A U130C, the self-cleavage stood at 1.16.

In the case of U49C A98G A125G, the self-cleavage was 0.07.

For the variant U43C U133C A134G, the self-cleavage stood at 2.11.

For U43C A62G A66U U130C, the self-cleavage stood at 0.56.

Take U43G A82U C121U U132C: the self-cleavage amounted to 0.15.

Consider U43C A117G U120C, for which the self-cleavage worked out at 0.52.

Consider A47G A59G A89C U122C, for which the self-cleavage worked out at 0.63.

With U43C U49A A55G A118G U122C, the self-cleavage amounted to 0.82.

Turning to U49C G79A U87A A126G, the self-cleavage stood at 0.03.

Turning to U49C A51G G80A A86G, the self-cleavage came to 0.12.

Regarding C45G A67G A90G U122A, the self-cleavage stood at 0.61.

As to A47U A62G A96G, the self-cleavage was found to be 0.71.

With A47U A68U U100A, the self-cleavage amounted to 0.41.

On to A47G A55G A63G U131C A140U, for which the self-cleavage was 1.31.

As for U49A A56G A95G A114G, the self-cleavage is 0.74.

For U49C A62G A92G C107A A114G U120A, the self-cleavage is 0.03.

For U43C A89U A129G, the self-cleavage was 1.04.

With U43C A64G U70C, the self-cleavage came to 1.21.

With U49C A54G G83A A114G, the self-cleavage came to 0.67.

Regarding A47U A63G G74A A110G, the self-cleavage was determined as 0.04.

For the variant U49C A116G U131C, the self-cleavage was determined as 0.57.

Consider A47U A67G A118U, for which the self-cleavage worked out at 0.14.

Turning to A47G A64G U132C, the self-cleavage came out at 1.62.

Turning to G44A A47G U57C A94G, the self-cleavage stood at 0.42.

With A47G A78G A95G U124C, the self-cleavage stood at 0.1.

Consider U49C C61G U72A C88U A90G A98G U122A A129G, for which the self-cleavage was 0.01.

In the case of U49C A54G A60U A116G A140U, the self-cleavage came out at 0.68.

Take U43C A60G A69G U70C A78U: the self-cleavage is 0.11.

As for U49C A117G U132C, the self-cleavage is 2.27.

Take U49C A56G A66G A110U: the self-cleavage came to 0.43.

Regarding A47G A117G C128U, the self-cleavage came out at 1.05.

On to A47U A51G U57C U133C A135G, for which the self-cleavage was found to be 1.75.

On to U43C A59G A68G, for which the self-cleavage was determined as 1.43.

Turning to U49A A54G A117U, the self-cleavage stood at 0.67.

As to A47U A55G A60G, the self-cleavage was 0.47.

As to U49C A94G A118C, the self-cleavage was found to be 0.7.

Take U49A U97C U127C: the self-cleavage is 0.6.

U49C A54G A111G U120C: the self-cleavage came to 0.

On to U49A G75C A78G A96G G138A, for which the self-cleavage stood at 0.15.

As to U49C A78U U132C, the self-cleavage came to 0.17.

Regarding U43G A62G U103C A110U A114U A117U U127A, the self-cleavage came out at 0.

Take U43C A60G A134G: the self-cleavage came to 1.69.

Regarding U49A A60G A90U, the self-cleavage is 0.83.

For the variant U43C A94G A117G U122C, the self-cleavage came out at 1.05.

With U49C A94G A96G A98U U127C, the self-cleavage turned out to be 2.08.

Consider U43C A64U U133C, for which the self-cleavage was 1.56.

As to A47G A56G A62U A94G U127C, the self-cleavage was found to be 1.01.

Regarding U43C A68U U103C A116G, the self-cleavage is 0.26.

As for U43G A63G U120C, the self-cleavage worked out at 1.23.

Take C46A C81U A117G: the self-cleavage came to 0.51.

Take U43C A60G A91G: the self-cleavage came to 1.27.

With U49C A56G A68G, the self-cleavage amounted to 1.36.

With U43C A60G A82C, the self-cleavage came to 0.13.

Regarding U49A A59G U102C, the self-cleavage came to 1.54.

Take A47U A52G A96G U103C U122C: the self-cleavage turned out to be 0.2.

Regarding A47G A114U C121U A134G, the self-cleavage was 0.05.

On to C46U A62G A89G U127C, for which the self-cleavage turned out to be 1.33.

For U43C A82G U87C A90U A91G, the self-cleavage was determined as 0.23.

U43C A96C U102C: the self-cleavage amounted to 1.87.

With U49A A63G U87A, the self-cleavage stood at 0.6.

Turning to U49C A67G U87C U108C, the self-cleavage was 0.

In the case of U49A U132A A135G, the self-cleavage is 1.04.

With A47G A51G U102C A125G, the self-cleavage turned out to be 1.06.

In the case of U43C A111G U132C U139C, the self-cleavage was 0.03.

For U49A A66G A92U A118G U133A, the self-cleavage was 0.93.

As to U43C A62G A66G U87C A96G, the self-cleavage came out at 1.03.

On to U49C A94G A114G, for which the self-cleavage was found to be 0.29.

Consider G48U A78G A96G, for which the self-cleavage was 0.12.

On to C45U A89G A118G, for which the self-cleavage was found to be 1.53.

Regarding G44U A56G A95G U100C G137U, the self-cleavage came out at 2.02.

Turning to A47G A51C U57A, the self-cleavage was 0.76.

Regarding U43C U108C U122C, the self-cleavage was determined as 0.01.

For U43C A69G U103C, the self-cleavage worked out at 0.9.

Consider G44A U70C A134G, for which the self-cleavage was 0.27.

Take A47G U49C U87C A95G U122C: the self-cleavage was 0.07.

U49A U102C A114U: the self-cleavage stood at 0.07.

U49A U100C A126G: the self-cleavage worked out at 1.3.

On to U43C A95U U122C, for which the self-cleavage came to 1.54.

In the case of U49C A95G U132C, the self-cleavage stood at 0.83.

Turning to A47G U57A A68U U100C, the self-cleavage was 2.19.

Consider U43C A64G U122C, for which the self-cleavage stood at 0.39.

On to A47G U49C U130C, for which the self-cleavage came to 0.51.

Take U49A A111G U124C: the self-cleavage turned out to be 0.

As for U43C A89G G137A, the self-cleavage came out at 2.11.

Take U49C A90G A92G A95G U97C: the self-cleavage amounted to 0.48.

Turning to U43G A82G A94G U103C A117G, the self-cleavage was 2.87.

In the case of U43C A55G U70C U87C, the self-cleavage is 0.71.

For the variant U43C A67G A92G U108A, the self-cleavage was 0.01.

On to C46U U100C U120C A125G, for which the self-cleavage was found to be 1.21.

Consider U43G U49C U87C A92G U131C A135U, for which the self-cleavage was 1.02.

Take A47U A55G U72A: the self-cleavage is 0.03.

Regarding A47U U72C U127C A134G, the self-cleavage came to 0.02.

Take A47U U108C U131C: the self-cleavage came to 0.

On to U49C A51G U100C U130C, for which the self-cleavage turned out to be 1.88.

As for U49C A60G A114G, the self-cleavage was determined as 0.14.

With A47G A56G A116C, the self-cleavage came to 0.06.

For A47G C71U A111G, the self-cleavage was 0.01.

For U49A A60G A67U C76U U120C U127A, the self-cleavage is 0.1.

On to C46U A89U A92G, for which the self-cleavage was determined as 0.75.

As for A47G A63G C105U A111G, the self-cleavage worked out at 0.

In the case of A47G A89G U103C C105A A110U G138A, the self-cleavage stood at 0.01.

On to A47G U57C A66G U131G U139C, for which the self-cleavage was 0.5.

U43C A56G A78U A91G A95G U127A: the self-cleavage came to 0.32.

In the case of U49C A60G U130A, the self-cleavage was determined as 0.24.

Regarding U43C A67G U131C A135G, the self-cleavage is 1.35.

For the variant C46U A69G A78C A86G G93U U120C, the self-cleavage turned out to be 0.15.

Regarding A47G C105U U132C A135G, the self-cleavage came out at 0.08.

Turning to U49C A78G A114U, the self-cleavage stood at 0.01.

Regarding G44A A86G U97C, the self-cleavage amounted to 1.78.

In the case of U43C A55G U72C, the self-cleavage stood at 0.12.

As to U49A A92U A126U, the self-cleavage came out at 0.81.

As to C45A A52G A94G A116G, the self-cleavage worked out at 0.91.

For A47U A91G U120C, the self-cleavage stood at 0.29.

With A47C A94G U108C A116G, the self-cleavage came out at 0.01.

Consider A47G A56G U100C, for which the self-cleavage is 1.7.

For U49C A56G A63G U108C, the self-cleavage was 0.
